In article PMC4336329 (PLoS ONE, 2015):
In all, about 310,000 compounds went through this assay and about 2,200 (0.71%) showed an effect of 50% or more. Effects have a minus sign here. The list shows a part of the results.

These molecules were tested against human ether-à-go-go-related gene (hERG) potassium channel (human, UniProt Q12809) (assay: primary screen, population patch clamp on CHO cells stably expressing hERG).
Sequence of human ether-à-go-go-related gene (hERG) potassium channel (Q12809 whole entry, looked up): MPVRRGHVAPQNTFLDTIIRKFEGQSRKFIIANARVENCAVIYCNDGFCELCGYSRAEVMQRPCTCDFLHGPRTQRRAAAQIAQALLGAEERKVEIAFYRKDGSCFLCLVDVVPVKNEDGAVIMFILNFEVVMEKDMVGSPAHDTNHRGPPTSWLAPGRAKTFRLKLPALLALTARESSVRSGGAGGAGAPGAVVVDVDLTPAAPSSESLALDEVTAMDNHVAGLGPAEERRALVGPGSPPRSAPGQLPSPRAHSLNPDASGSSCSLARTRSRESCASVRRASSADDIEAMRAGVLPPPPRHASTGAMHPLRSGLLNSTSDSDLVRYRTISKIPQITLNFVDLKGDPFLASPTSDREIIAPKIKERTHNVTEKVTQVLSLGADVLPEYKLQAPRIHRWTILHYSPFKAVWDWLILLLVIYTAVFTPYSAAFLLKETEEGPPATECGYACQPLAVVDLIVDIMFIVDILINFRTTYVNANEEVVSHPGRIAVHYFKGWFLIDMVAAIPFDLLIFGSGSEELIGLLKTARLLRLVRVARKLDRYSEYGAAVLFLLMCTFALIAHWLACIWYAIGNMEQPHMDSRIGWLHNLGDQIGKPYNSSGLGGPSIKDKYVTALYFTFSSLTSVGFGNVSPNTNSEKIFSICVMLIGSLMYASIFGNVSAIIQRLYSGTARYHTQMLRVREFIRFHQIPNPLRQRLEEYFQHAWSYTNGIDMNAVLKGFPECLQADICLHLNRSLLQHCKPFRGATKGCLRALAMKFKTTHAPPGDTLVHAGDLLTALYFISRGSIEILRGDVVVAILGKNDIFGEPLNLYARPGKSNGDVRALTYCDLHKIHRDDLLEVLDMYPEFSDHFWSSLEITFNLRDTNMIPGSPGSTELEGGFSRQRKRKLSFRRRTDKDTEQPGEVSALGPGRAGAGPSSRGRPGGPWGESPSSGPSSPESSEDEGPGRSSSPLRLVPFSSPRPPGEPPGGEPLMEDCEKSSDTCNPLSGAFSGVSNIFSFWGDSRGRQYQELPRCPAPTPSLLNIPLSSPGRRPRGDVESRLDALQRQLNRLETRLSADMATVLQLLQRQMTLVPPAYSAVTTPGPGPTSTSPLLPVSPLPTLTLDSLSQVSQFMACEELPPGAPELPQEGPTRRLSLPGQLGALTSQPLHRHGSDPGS

Compound | hERG current change (%, negative = inhibition) at 1uM
O=C(CCCC(=O)N(CC(=O)NC1CCCC1)C1CCCC1)Nc1ccccn1 | 10.4%
CC/C(Cc1ccccc1)=N/NC(=O)CCn1nnc2ccccc21 | 10.6%
Cc1cccc(C)c1NC(=O)COC(=O)C1CC(=O)N(Cc2ccccc2)C1 (stereo not drawn) | 4.08%
O=c1oc2cc(O)ccc2s1 | 13.5%
CC(=O)c1ccc(OCCCC(=O)n2nnc3ccccc32)cc1 | 26.7%
C=CCn1c(NCCO)nc2c1c(=O)n(C)c(=O)n2C | 12.9%
CCN(CC)S(=O)(=O)c1cc(NC(=O)C(=O)c2c(-c3ccccc3)cc3ccccn23)ccc1C | -0.318%
CCCOc1ccc(/C(O)=C2/C(=O)C(=O)N(CCCn3ccnc3)C2c2ccc(C)o2)cc1 (stereo not drawn) | 11.3%
COc1cccc(/C=N/NC(=O)CSc2nnc(C)n2-c2ccccc2)c1OC | 5.05%
CN(c1ccccc1)S(=O)(=O)c1cccc(NC(=O)c2cccc(C#N)c2)c1 | -2.81%
CN1CCN(C(=O)C23CCC(C)(C(=O)C2Br)C3(C)C)CC1 (stereo not drawn) | 11.6%
C/C(=N\Nc1nc(N)cc(Cl)n1)c1ccc(F)cc1 | 1.46%
CCn1c(C)csc1=NC(=O)c1ccccc1 | 11.3%
CCN(CC)C(=O)Cn1c(=O)n(CCC(=O)Nc2ccc(F)cc2)c(=O)c2sccc21 | 9.3%
O=C(CSc1nnc(CNC(=O)c2cccs2)o1)Nc1cccc(F)c1 | 10.4%
O=S(=O)(c1ccc2[nH]c3c(c2c1)CCCC3)N1CCCCC1 | 6.15%
CCC1(c2ccc(F)cc2)NC(=O)N(CC(=O)N2c3ccccc3NC(=O)C2(C)C)C1=O (stereo not drawn) | 0.893%
CCCCNC(=O)c1cccc(S(=O)(=O)N2CC3(C)CC2CC(C)(C)C3)c1 (stereo not drawn) | 0.441%
CCC(=O)N(Cc1ccc(S(N)(=O)=O)cc1)C1CC(=O)N(c2ccccc2)C1=O (stereo not drawn) | 9.31%
CCCS(=O)(=O)c1nc(S(=O)(=O)c2ccc(C)cc2)c(N2CCN(C)CC2)s1 | 18.9%
COc1ccc(CNC(=O)COC(=O)c2ccc3ncsc3c2)cc1OC | 15.2%
O=C(NCCCN1CCCCCC1)c1cc2c(=O)oc3ccccc3c2s1 | -11.1%
Cc1cccc(NC(=S)Nc2ccccn2)c1 | 10%

Compound | hERG current change (%, negative = inhibition) at 1uM
Cc1ccc(NC(=O)COc2coc(CN3CCc4ccccc43)cc2=O)c(C)c1 | 1.64%
CN(CC(=O)Nc1ccccc1Br)CC(=O)Nc1ccccc1C(F)(F)F | -2.9%
CCc1cccc2c(C#N)cn(CC(=O)N3CCOCC3)c12 | 8.98%
Cl.O=C(COc1ccc(Cl)cc1)NCCN1CCCC1 | 4.75%
O=C(NCC1CCCO1)c1cc2c(s1)CCCC2 (stereo not drawn) | 14.8%
CSc1nc2c(c(=O)[nH]1)C(c1cccc(Br)c1)CC(=O)N2 (stereo not drawn) | 14.4%
CC1C(=O)N2CCCc3cc(NC(=O)C4CC4)cc1c32 (stereo not drawn) | 6.68%
Cc1cccc(NC(=S)NCCO)c1C | 17.6%
Cc1cc(C)cc(N(C(C)C(=O)Nc2c(C)n(C)n(-c3ccccc3)c2=O)S(C)(=O)=O)c1 (stereo not drawn) | 8.49%
CCN(CC)S(=O)(=O)c1cccc(-c2nnc(SCC(=O)NC3CCCC3)n2N)c1 | 19.5%
CN(C)C(=S)NCc1ccccc1 | 11.8%
CC(=O)Nc1ccc(NC(=O)CSc2nnnn2C2CCCCC2)cc1 | 7.21%
O=C(NCCc1c[nH]c2ccccc12)/C(=C\c1cccs1)NC(=O)c1ccccc1 | -3.43%
Clc1cccc(CON/C=N/c2ncnc3sccc23)c1 | 6.94%
COc1ccc(Cl)cc1N1C(=O)C2CCCN2C1c1ccccc1F (stereo not drawn) | 3.82%
Cc1ccc(N2CC(C(=O)Nc3nnc(SCCN4CCOCC4)s3)CC2=O)cc1 (stereo not drawn) | 2.63%
NC(=O)c1nc(-c2cccs2)nc2c1[nH]c(=O)n2-c1ccc(F)cc1 | 11.8%
O=C(O)C1CC=CCC1C(=O)N1CC=C(c2ccccc2)CC1 (stereo not drawn) | 6.47%
CCc1cccc(C)c1NC(=O)CCN1C(=O)NC(C)(C)C1=O | 13.4%
Cl.Clc1ccc(CN2C3=NCCN3c3ccccc32)cc1 | -40.4%
COC(=O)c1ccccc1NC(=O)C(C)c1ccc([N+](=O)[O-])cc1 (stereo not drawn) | -0.752%
CCC(Sc1nncn1C)C(=O)Nc1ccccc1OC (stereo not drawn) | -2.15%
Cc1ccc(S(=O)(=O)NNC(=O)CCC(=O)Nc2ccccc2)cc1 | 4.85%

Compound | hERG current change (%, negative = inhibition) at 1uM
O=C(CCCN=C1NS(=O)(=O)c2ccccc21)OCc1cc([N+](=O)[O-])cc2c1OCOC2 | 5.19%
Cc1ccc(C2CC(c3ccccc3)=NN2C(=S)Nc2ccccc2)o1 (stereo not drawn) | 3.95%
COc1cccc(C(=O)OCC(=O)Nc2cc(C)c(C)cc2[N+](=O)[O-])c1 | 9.91%
CCCCCCCCOc1ccc(C2OC34CCCCC3C(C#N)(C#N)C2(C#N)C(=N)O4)cc1 (stereo not drawn) | 4.69%
CCN(C(=O)CN1C(=O)NC(c2ccccc2)(c2ccc(C)c(C)c2)C1=O)C1CCCCC1 (stereo not drawn) | -1.43%
N#C/C(=C\c1ccc(F)cc1)C(=O)Nc1ccccn1 | 5.41%
O=C(O)c1cc(O)ccc1NC(=O)c1cccc2ccccc12 | 6.67%
COc1ccccc1C(CC(=O)Nc1nccs1)c1ccco1 (stereo not drawn) | 3.4%
O=C(Nc1ccc(F)cc1)c1ccccc1NC(=O)C1CC=CCC1C(=O)O (stereo not drawn) | 13.6%
COc1ccc(C(=O)NCCSc2ccccc2C)cc1 | 19.7%
Cc1nc2c(C)cccn2c(=O)c1NC(=O)c1cccs1 | 9.88%
O=C(OCc1nc2ccsc2c(=O)[nH]1)c1cc(Br)c(Br)s1 | 5.54%
CC(=O)c1cccc(NC(=O)CCS(=O)(=O)c2ccc(Br)s2)c1 | 12.7%
COc1ccc(OCCSc2nnc(-c3ccccc3)n2N)cc1 | 13.6%
Cc1c(C(=O)N2CCN(S(=O)(=O)c3ccccc3F)CC2)oc2c(Cl)cccc12 | 20.6%
N#C/C(=C\N1CCOCC1)S(=O)(=O)c1ccc(Cl)cc1 | 13.5%
O=C(NCc1ccc(F)cc1)c1ccc(S(=O)(=O)Nc2cccc(C(F)(F)F)c2)cc1 | 18.1%
CCc1ccc(Nc2cnn(C34CC5CC(CC(CC(=O)O)(C5)C3)C4)c(=O)c2Cl)cc1 | 12.7%
CCCCOc1ccc(NC(=O)CN2CCN(CC)CC2)cc1.Cl | 8.16%
CCc1c(C#N)c(=O)[nH]c(=O)n1-c1ccccc1 | 14.3%
CCn1c(CC(=O)Nc2ccccc2F)nnc1SCC(=O)Nc1nnc(C)s1 | 6.05%
CCN(c1ccccc1C)S(=O)(=O)c1cc2c3c(c1)CCN3C(=O)CC2 | -0.313%
CNc1nc(C)cc(C)c1S(=O)(=O)c1ccc(Cl)cc1 | 9.13%

Compound | hERG current change (%, negative = inhibition) at 1uM
COc1cc(/C=N/NC(=O)c2ccc(COc3ccccc3Cl)o2)cc(Br)c1O | 3.3%
CCN(CC)CCNC(=O)c1cc2c(=O)n(CC)c3ccccc3c2s1 | 8.96%
CNc1nc(Nc2ccc(C(C)=O)cc2)nc(OC(C(F)(F)F)C(F)(F)F)n1 | 16.2%
O=C(Nc1ccccc1)C(Cc1ccccc1)NC(=O)C12CC3CC(CC(C3)C1)C2 (stereo not drawn) | 4.81%
CC12CN3CC(C)(CN(C1)C3c1ccc([N+](=O)[O-])o1)C2=O (stereo not drawn) | 9.42%
CC(C)C1CC(CCN2CCCCC2)(c2ccccc2)CCO1.Cl (stereo not drawn) | 0.32%
CCN=C1S/C(=C\c2ccc(O)c(OCC)c2)C(=O)N1CC | 3.5%
Cc1ccc([C@@H]2CC=C(C(=O)O)[C@H](c3ccccc3F)N2S(=O)(=O)c2ccc(C)cc2)cc1 | 10%
Cc1ccc(NC(=O)CCC(=O)NCCO)cc1 | 11.5%
Cn1c(Nc2ccccc2)cc(=O)n(C)c1=O | 13.6%
COc1ccc2c(c1)nc(NCCO)n2C | 12.3%
O=C(CCn1c(=O)sc2ccccc21)NC1=NCCS1 | 10.8%
Cc1ccc(S(=O)(=O)N2CCCCC2)cc1NC(=O)CN1C(=O)CN(C)C1=O | 23%
Nc1nonc1-c1noc(CCCCCN2C(=O)c3ccccc3C2=O)n1 | 2.83%
COc1ccccc1NC(=O)CSc1nc2ccccc2nc1N1CC(C)OC(C)C1 (stereo not drawn) | 16.8%
Cc1ccc(S(=O)(=O)N2CCN(C(=O)Cn3cnc4c3c(=O)n(C)c(=O)n4C)CC2)cc1C | 3.31%
COc1ccc(N2CCN(CC(=O)Nc3nc4c(s3)CC(C)CC4)CC2)cc1 (stereo not drawn) | -0.697%
CCN(CC)c1ccc(NC(=O)c2cccnc2)c(C)c1 | 20.2%
Cc1[nH]c(=O)c(C#N)c(C)c1Br | 16.7%
CCOCCCNC(=O)CN1N=C(c2ccc(C)cc2)CCC1=O | -15.8%
COc1ccc(N(C(C)=O)c2nc3ccccc3[nH]2)cc1 | 15.9%
